Measured values as given in FireProtDB (doi:10.1002/pro.5560050812).

Conditions: Homo sapiens; pH 7; 22 °C; GdnHCl; CD; Sodium cacodylate 10 mM; NaCl 50 mM; reversible: yes

U1 small nuclear ribonucleoprotein A wild type (chain not printed)
unfolding free energy: 8.1 kcal/mol
